Substitutions are numbered along the chain they refer to. In names and notes the source's numbering stands. These are yes or no findings as the source states them, for the method shown. Binding seen in cells or lysates may run through a third protein. Some results given as binding are weak or reduced against the parent protein; the word gives no strength. Where a sequence is shown, tags or fusion partners need not be part of it.
How the values were obtained:
Test in all cases: cross-linking; in vivo disulfide cross-linking of single-cysteine variants in B. subtilis; free thiols blocked with 5 mM N-ethyl maleimide; total extracts on SDS-PAGE with or without β-mercaptoethanol; anti-His immunoblot
[1] = molecular target: His6-YukC I208C (Bacillus subtilis 168) (UniProt P71070)
[2] = molecular target: His6-YukC H209C (Bacillus subtilis 168) (UniProt P71070)
[3] = molecular target: His6-YukC I210C (Bacillus subtilis 168) (UniProt P71070)
[4] = molecular target: His6-YukC R212C (Bacillus subtilis 168) (UniProt P71070)

B1: His6-YukC I208C (protein, UniProt P71070 1-451)
chain: MSGEQKSYLENQLEAVAEKTDAGYTFTFQREKIKLLDGLEANVIKDINPFFHKEIDVTDDEVIITIQPPSSYKAFRFMKAKDKKSKWQFAYQLVQAVQQHNLSRLNLIVAPENIVFDKGLTPYFLHYGVKESIPPYERDEERVWQELKAAAALAVDGAFAFEDYLKFNETLTFSAEAKAILDAESYDDLLELIQTHIDELEAKAKTYCHIPRKKWNIQRYIGLGLIVLLVPALIYSMYALFFAQPKHQAIVDSNRAFLNKQYSEVISTLSKYDAESLPESVQYQLATSYVEVENLGSAKTKNIENNLVTLQSDPQHFLYWIDYGRGEYKEAISIGRKLEYNDYIYFALAKYKQQLLSEDTNDEDIQKELDSVNSELEKAQKERQENKQSNSETSLVDTSEEQTQTDEEKQAEEKAAEEKAAAEEKAKKEEQKEKEDEKKETEKKDEKKDDK
B1 was tested, and the binding [1] was “binds”.

B2: His6-YukC H209C (protein, UniProt P71070 1-451)
chain: B1 chain with C208I, H209C
In the case of B2, the binding [2] is reported as “binds”.

B3: His6-YukC I210C (protein, UniProt P71070 1-451)
chain: B1 chain with C208I, I210C
B3 was tested, and the binding [3] was “binds”.

B4: His6-YukC R212C (protein, UniProt P71070 1-451)
chain: B1 chain with C208I, R212C
In the case of B4, the binding [4] is reported as “binds”.

— paper PMC9600267, “The Antibacterial Type VII Secretion System of Bacillus subtilis: Structure and Interactions of the Pseudokinase YukC/EssB” (mBio, 2022)
